Consider three molecules from publication PMC9724675.

Experiment [1] deals with POPDC1-Myc (Popeye domain-containing protein 1, Myc-tagged) (mouse) (UniProt Q9ES83). Put plainly: co-IP; HEK293 lysates, immunoprecipitation of Myc-tagged POPDC with anti-MYC, western blot (anti-FLAG, anti-GFP). In general terms: In western blotting, separated proteins are transferred to a membrane and probed.
Experiment [2] has the same target. The experiment is described as follows: proximity ligation; HEK293 cells expressing YFP(GFP)-tagged AC9 and Myc-tagged POPDC proteins, fixed; antibodies against GFP and MYC; competition by overexpressed Flag-AC9, POPDC1-Flag or EGFR (control); high content microscopy.
Experiment [3] concerns the target T1, POPDC2-Myc (mouse) (UniProt Q9ES82).
T1 sequence: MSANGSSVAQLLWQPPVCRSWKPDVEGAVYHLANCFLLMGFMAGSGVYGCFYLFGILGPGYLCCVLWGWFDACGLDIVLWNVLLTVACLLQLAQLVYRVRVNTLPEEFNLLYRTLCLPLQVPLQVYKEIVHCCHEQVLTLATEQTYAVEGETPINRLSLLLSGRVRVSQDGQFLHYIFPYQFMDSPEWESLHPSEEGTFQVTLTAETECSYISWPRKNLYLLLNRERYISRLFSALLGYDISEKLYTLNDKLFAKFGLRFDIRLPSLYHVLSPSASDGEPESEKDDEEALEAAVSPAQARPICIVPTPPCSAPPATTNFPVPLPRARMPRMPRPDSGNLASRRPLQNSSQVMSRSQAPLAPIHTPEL
The description is as above.

For experiment [4], the target named is T1, POPDC2-Myc (mouse). Put plainly: co-IP; HEK293 lysates, immunoprecipitation of Myc-tagged POPDC with anti-MYC, western blot (anti-FLAG, anti-GFP).
For experiment [5], the target named is POPDC1-Myc (Popeye domain-containing protein 1, Myc-tagged) (mouse) (UniProt Q9ES83). Put plainly: co-IP; IP-AC assay: HEK293 lysates, immunoprecipitation with anti-MYC, associated AC activity measured with 300 nM Gαs-GTPγS.
Experiment [6] shares this target. Put plainly: co-IP; COS-7 lysates, immunoprecipitation of Myc-tagged POPDC1 and truncations with anti-MYC, western blot with anti-AC9 and anti-MYC.
Another experiment concerns the target T2, YFP-tagged AC9 (human) (UniProt O60503).
T2 sequence: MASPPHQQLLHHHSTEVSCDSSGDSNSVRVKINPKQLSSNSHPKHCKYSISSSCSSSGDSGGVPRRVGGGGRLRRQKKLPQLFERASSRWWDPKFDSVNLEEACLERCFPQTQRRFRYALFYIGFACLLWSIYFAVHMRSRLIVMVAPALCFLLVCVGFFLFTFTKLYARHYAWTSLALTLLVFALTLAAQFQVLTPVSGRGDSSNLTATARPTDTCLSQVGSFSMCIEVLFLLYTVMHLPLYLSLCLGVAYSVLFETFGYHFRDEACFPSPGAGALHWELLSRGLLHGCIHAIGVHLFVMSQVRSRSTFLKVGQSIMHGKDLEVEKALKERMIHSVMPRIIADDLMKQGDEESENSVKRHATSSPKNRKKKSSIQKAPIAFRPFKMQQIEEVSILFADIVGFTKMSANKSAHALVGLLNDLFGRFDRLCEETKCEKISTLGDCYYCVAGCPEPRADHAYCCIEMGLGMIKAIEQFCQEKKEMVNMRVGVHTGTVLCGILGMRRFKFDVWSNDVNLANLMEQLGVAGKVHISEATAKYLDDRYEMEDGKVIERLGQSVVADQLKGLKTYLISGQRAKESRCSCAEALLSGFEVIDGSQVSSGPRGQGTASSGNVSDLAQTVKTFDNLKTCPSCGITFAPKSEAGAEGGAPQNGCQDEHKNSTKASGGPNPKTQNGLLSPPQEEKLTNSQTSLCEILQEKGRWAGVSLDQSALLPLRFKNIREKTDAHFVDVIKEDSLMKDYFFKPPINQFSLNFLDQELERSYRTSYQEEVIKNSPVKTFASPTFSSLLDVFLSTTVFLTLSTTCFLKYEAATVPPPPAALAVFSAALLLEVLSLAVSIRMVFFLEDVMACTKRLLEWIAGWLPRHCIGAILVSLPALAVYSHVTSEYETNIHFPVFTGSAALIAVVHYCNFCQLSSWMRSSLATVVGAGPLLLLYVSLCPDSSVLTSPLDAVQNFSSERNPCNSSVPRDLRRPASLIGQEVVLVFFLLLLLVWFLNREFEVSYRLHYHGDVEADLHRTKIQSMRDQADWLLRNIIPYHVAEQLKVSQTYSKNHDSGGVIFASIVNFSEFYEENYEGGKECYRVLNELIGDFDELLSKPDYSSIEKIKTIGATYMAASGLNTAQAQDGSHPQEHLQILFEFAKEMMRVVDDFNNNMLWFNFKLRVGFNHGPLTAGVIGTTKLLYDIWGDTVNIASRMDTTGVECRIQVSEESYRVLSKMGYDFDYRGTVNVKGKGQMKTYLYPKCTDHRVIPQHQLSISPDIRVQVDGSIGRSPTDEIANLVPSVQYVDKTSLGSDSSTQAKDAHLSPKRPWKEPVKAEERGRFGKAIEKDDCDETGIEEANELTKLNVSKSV
The experiment is described as follows: proximity ligation; HEK293 cells expressing YFP(GFP)-tagged AC9 and Myc-tagged POPDC proteins, fixed; antibodies against GFP and MYC; competition by overexpressed Flag-AC9, POPDC1-Flag or EGFR (control); high content microscopy.

No constants are given. Whether binding was seen depends on the method and setting. In cells and extracts the contact can be indirect. Some binding calls cover weakened binding; strength is not graded here. Sequences can lack the tags named with a protein.

B1: YFP-tagged AC9 (enzyme, UniProt O60503 1-1353)
chain: MASPPHQQLLHHHSTEVSCDSSGDSNSVRVKINPKQLSSNSHPKHCKYSISSSCSSSGDSGGVPRRVGGGGRLRRQKKLPQLFERASSRWWDPKFDSVNLEEACLERCFPQTQRRFRYALFYIGFACLLWSIYFAVHMRSRLIVMVAPALCFLLVCVGFFLFTFTKLYARHYAWTSLALTLLVFALTLAAQFQVLTPVSGRGDSSNLTATARPTDTCLSQVGSFSMCIEVLFLLYTVMHLPLYLSLCLGVAYSVLFETFGYHFRDEACFPSPGAGALHWELLSRGLLHGCIHAIGVHLFVMSQVRSRSTFLKVGQSIMHGKDLEVEKALKERMIHSVMPRIIADDLMKQGDEESENSVKRHATSSPKNRKKKSSIQKAPIAFRPFKMQQIEEVSILFADIVGFTKMSANKSAHALVGLLNDLFGRFDRLCEETKCEKISTLGDCYYCVAGCPEPRADHAYCCIEMGLGMIKAIEQFCQEKKEMVNMRVGVHTGTVLCGILGMRRFKFDVWSNDVNLANLMEQLGVAGKVHISEATAKYLDDRYEMEDGKVIERLGQSVVADQLKGLKTYLISGQRAKESRCSCAEALLSGFEVIDGSQVSSGPRGQGTASSGNVSDLAQTVKTFDNLKTCPSCGITFAPKSEAGAEGGAPQNGCQDEHKNSTKASGGPNPKTQNGLLSPPQEEKLTNSQTSLCEILQEKGRWAGVSLDQSALLPLRFKNIREKTDAHFVDVIKEDSLMKDYFFKPPINQFSLNFLDQELERSYRTSYQEEVIKNSPVKTFASPTFSSLLDVFLSTTVFLTLSTTCFLKYEAATVPPPPAALAVFSAALLLEVLSLAVSIRMVFFLEDVMACTKRLLEWIAGWLPRHCIGAILVSLPALAVYSHVTSEYETNIHFPVFTGSAALIAVVHYCNFCQLSSWMRSSLATVVGAGPLLLLYVSLCPDSSVLTSPLDAVQNFSSERNPCNSSVPRDLRRPASLIGQEVVLVFFLLLLLVWFLNREFEVSYRLHYHGDVEADLHRTKIQSMRDQADWLLRNIIPYHVAEQLKVSQTYSKNHDSGGVIFASIVNFSEFYEENYEGGKECYRVLNELIGDFDELLSKPDYSSIEKIKTIGATYMAASGLNTAQAQDGSHPQEHLQILFEFAKEMMRVVDDFNNNMLWFNFKLRVGFNHGPLTAGVIGTTKLLYDIWGDTVNIASRMDTTGVECRIQVSEESYRVLSKMGYDFDYRGTVNVKGKGQMKTYLYPKCTDHRVIPQHQLSISPDIRVQVDGSIGRSPTDEIANLVPSVQYVDKTSLGSDSSTQAKDAHLSPKRPWKEPVKAEERGRFGKAIEKDDCDETGIEEANELTKLNVSKSV
For B1, the binding result (in experiment [1]; in experiment [2]; with POPDC2-Myc (mouse) [3]) was “binds” each time.

B2: Flag-tagged AC9 (adenylyl cyclase 9) (enzyme, UniProt O60503 1-1353)
chain: MASPPHQQLLHHHSTEVSCDSSGDSNSVRVKINPKQLSSNSHPKHCKYSISSSCSSSGDSGGVPRRVGGGGRLRRQKKLPQLFERASSRWWDPKFDSVNLEEACLERCFPQTQRRFRYALFYIGFACLLWSIYFAVHMRSRLIVMVAPALCFLLVCVGFFLFTFTKLYARHYAWTSLALTLLVFALTLAAQFQVLTPVSGRGDSSNLTATARPTDTCLSQVGSFSMCIEVLFLLYTVMHLPLYLSLCLGVAYSVLFETFGYHFRDEACFPSPGAGALHWELLSRGLLHGCIHAIGVHLFVMSQVRSRSTFLKVGQSIMHGKDLEVEKALKERMIHSVMPRIIADDLMKQGDEESENSVKRHATSSPKNRKKKSSIQKAPIAFRPFKMQQIEEVSILFADIVGFTKMSANKSAHALVGLLNDLFGRFDRLCEETKCEKISTLGDCYYCVAGCPEPRADHAYCCIEMGLGMIKAIEQFCQEKKEMVNMRVGVHTGTVLCGILGMRRFKFDVWSNDVNLANLMEQLGVAGKVHISEATAKYLDDRYEMEDGKVIERLGQSVVADQLKGLKTYLISGQRAKESRCSCAEALLSGFEVIDGSQVSSGPRGQGTASSGNVSDLAQTVKTFDNLKTCPSCGITFAPKSEAGAEGGAPQNGCQDEHKNSTKASGGPNPKTQNGLLSPPQEEKLTNSQTSLCEILQEKGRWAGVSLDQSALLPLRFKNIREKTDAHFVDVIKEDSLMKDYFFKPPINQFSLNFLDQELERSYRTSYQEEVIKNSPVKTFASPTFSSLLDVFLSTTVFLTLSTTCFLKYEAATVPPPPAALAVFSAALLLEVLSLAVSIRMVFFLEDVMACTKRLLEWIAGWLPRHCIGAILVSLPALAVYSHVTSEYETNIHFPVFTGSAALIAVVHYCNFCQLSSWMRSSLATVVGAGPLLLLYVSLCPDSSVLTSPLDAVQNFSSERNPCNSSVPRDLRRPASLIGQEVVLVFFLLLLLVWFLNREFEVSYRLHYHGDVEADLHRTKIQSMRDQADWLLRNIIPYHVAEQLKVSQTYSKNHDSGGVIFASIVNFSEFYEENYEGGKECYRVLNELIGDFDELLSKPDYSSIEKIKTIGATYMAASGLNTAQAQDGSHPQEHLQILFEFAKEMMRVVDDFNNNMLWFNFKLRVGFNHGPLTAGVIGTTKLLYDIWGDTVNIASRMDTTGVECRIQVSEESYRVLSKMGYDFDYRGTVNVKGKGQMKTYLYPKCTDHRVIPQHQLSISPDIRVQVDGSIGRSPTDEIANLVPSVQYVDKTSLGSDSSTQAKDAHLSPKRPWKEPVKAEERGRFGKAIEKDDCDETGIEEANELTKLNVSKSV
For the molecule B2, the binding result (in experiment [1]; in the experiment with POPDC2-Myc (mouse) [4]; in experiment [5]; in experiment [6]) was “binds” each time.

B3: POPDC1-Flag (protein, UniProt Q9ES83 1-358)
chain: MNSTESIPLAQSTVAGFTSELESLTPVPSNETTCENWREIHHLVFHVANVCFAVGLLIPTTLHLHMILLRVMLSLGCTLYVVWATLYRCALDVMIWNSVFLGINILHLSYLLYKKRPVKIEKELGGVYHRLFEPLRVPPDLFRRLTGQFCMIQTLKRGQVYATEDKTSVDDRLSILLKGRMKVSYRGHFLHNIYPCAFIDSPEFRSTQMHKGEKFQVTIVADDNCRFLCWSRERLTYFLESEPFLYEIFRYLIGKDITNKLYSLNDPTLNDKKVKKLEPQMSLCTQISMLEMRNSITSSSDGEDGLHHFLRGSSSTASLPMSSPQQRASAKMKPIEEGVEDDDEVFVSPDALKVHQLP
Take B3: the binding entry with YFP-tagged AC9 (human) is “binds”.
